We go through 40 sequences from the supplement of paper PMC7826260.

The list shows a part of the results. Viral Rep nickase domains cut single-stranded DNA in vitro (3 µM enzyme, 1 h, 37 °C); shown is the middle of each 90-letter strand. A value is the log2 ratio of uncut reads to the pool without enzyme; strong cutting gives strongly negative numbers. There is no active / inactive call. Shares of all reads are compared; values above 0 arise when much of the pool is cut.

The test concerns T1, Rep nickase domain of tomato golden mosaic virus.
T1 sequence (residues 1-124, tag not shown): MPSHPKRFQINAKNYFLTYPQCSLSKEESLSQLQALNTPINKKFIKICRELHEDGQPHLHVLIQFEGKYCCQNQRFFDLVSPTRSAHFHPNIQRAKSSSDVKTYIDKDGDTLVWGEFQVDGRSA
The experiment in a line: uncleaved DNA left, log2 of reads against the no-enzyme library (log2 ratio); higher = less cleavage (more negative = more Rep cleavage of the k-mer); sequences stand for … in CTCGTCCG…ACCGGAGA
The procedure: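 A pool of 90-nt single-stranded DNAs with seven random bases just before the constant AC of the nick site (name = the seven bases) was cut by 3 µM recombinant His6-SUMO-tagged Rep nickase domain (300 nM DNA, 50 mM HEPES pH 8.0, 50 mM NaCl, 1 mM MnCl2, 1 h, 37 °C, three replicates). Uncut DNA was amplified and sequenced.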
In the case of ACGGGGC, the “uncleaved DNA left (log2)” value is -0.00584. As for TCCGTGC, the figure is -0.0217. As to AGTCTCA, the “uncleaved DNA left (log2)” value stood at 0.0266.

As to AAAGCCA, the “uncleaved DNA left (log2)” value was 0.00547. CAAGTCA: the “uncleaved DNA left (log2)” value is 0.0138.

With GGTGTGA, the “uncleaved DNA left (log2)” value is 0.124. Regarding GTTAGAG, the “uncleaved DNA left (log2)” value came out at 0.0331.

GGCTTAC: the “uncleaved DNA left (log2)” value is -0.0708. On to ACGTTTG, for which the “uncleaved DNA left (log2)” value was found to be 0.0416.

In the case of TACTCGC, the “uncleaved DNA left (log2)” value is -0.166. As for CGCCATA, the figure is -0.0837; as for CTATTTC, -0.092; as for GTGAAAT, 0.193. Regarding CAGCCGG, the “uncleaved DNA left (log2)” value was determined as 0.182. TGTGGCG: the “uncleaved DNA left (log2)” value was 0.00606. On to ATAATGT, for which the “uncleaved DNA left (log2)” value turned out to be 0.151. As to ACGGGCA, the “uncleaved DNA left (log2)” value turned out to be 0.0112.

On to GCTCCAG, for which the “uncleaved DNA left (log2)” value was found to be 0.0151.

With CATAGAA, the “uncleaved DNA left (log2)” value was -0.0178. On to CTTCTAT, for which the “uncleaved DNA left (log2)” value amounted to 0.102. As for CCGATTT, the “uncleaved DNA left (log2)” value is -0.207.

As for AGAAACT, the “uncleaved DNA left (log2)” value came out at 0.0161.

AAGCTTC: the “uncleaved DNA left (log2)” value worked out at 0.0139. As for GCGGCGG, the figure is 0.0512.

Take TTTCGAA: the “uncleaved DNA left (log2)” value was -0.0468. Turning to CACTTAA, the “uncleaved DNA left (log2)” value was -0.215. CAGCGAG: the “uncleaved DNA left (log2)” value was determined as 0.105. The same measure for ATGGTGC: 0.0206; for GCGGCGA: 0.0326. As to CCAACTC, the “uncleaved DNA left (log2)” value was -0.0475. The same measure for TTGCCAG: -0.0606. As for TGCCATG, the “uncleaved DNA left (log2)” value is -0.0436. Turning to GTAATTA, the “uncleaved DNA left (log2)” value was 0.045. Consider CCGTTCT, for which the “uncleaved DNA left (log2)” value is -0.0839. Consider ACCCATT, for which the “uncleaved DNA left (log2)” value is -0.163. For ATATGGG, the “uncleaved DNA left (log2)” value is -0.00478. As for ATCTGGT, the figure is -0.13. As to ATCTGGG, the “uncleaved DNA left (log2)” value worked out at 0.0146. As for AGAAGAA, the figure is 0.144. Regarding CTGGTTT, the “uncleaved DNA left (log2)” value is -0.0328.
